Data as given in PMC3873459 (PLoS Pathogens, 2013).

How the values were obtained:
[1] = target: T1, pfiT, tag-less (GST removed with PreScission protease) (Pseudomonas fluorescens); assay: AUC; conditions: both partners purified
T1 construct: also called recombinant pfiT; native pfiT; not shown: GST, N-terminal, cleaved

GST-pfiT fusion protein = GST-pfiT fusion protein (Pseudomonas fluorescens); assay: pull-down; conditions: both partners purified

B1: recombinant HLA-DR1 protein bound to a hemagglutinin (HA) peptide (peptide-MHC)
chain 1: not shown
chain 2: TRPRFLWQLKFECHFFNGTERVRLLERCIYNQEESVRFDSDVGEYRAVTELGRPDAEYWNSQKDLLEQRRAAVDTYCRHNYGVGESFTVQRRVEPKVTVYPSKTQPLQHHNLLVCSVSGFYPGSIEVRWFRNGQEEKAGVVSTGLIQNGDWTFQTLVMLETVPRSGEVYTCQVEHPSVTSPLTVEWRA
chain 3: PKYVKQNTLKLAT
- Kd [1]: 17 µM
- Kd (GST-pfiT fusion protein): ~13.5 µM
